Results: article PMC12820563
Some of the results follow. The list includes weakly bound sequences.

What follows are sequences tested against T1, MBP-FoxP3dN (UniProt Q99JB6) (assay: PD-seq (MBP pull-down with sequencing)). Conditions: 20 mM Tris-HCl pH 7.5, 100 mM NaCl, 1.5 mM MgCl2, 0.4 uM protein, 0.1 uM dsDNA library, 30 min, room temperature, amylose pull-down; high values mean tight binding; double strand, one strand shown.
T1 sequence: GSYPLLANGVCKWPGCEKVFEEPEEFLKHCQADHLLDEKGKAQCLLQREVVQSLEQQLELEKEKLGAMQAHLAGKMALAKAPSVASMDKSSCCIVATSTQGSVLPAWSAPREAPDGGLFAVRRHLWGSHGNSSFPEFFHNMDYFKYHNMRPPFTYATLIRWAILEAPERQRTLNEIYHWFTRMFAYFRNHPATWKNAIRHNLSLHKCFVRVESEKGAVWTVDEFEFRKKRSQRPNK

Sequence | binding signal (RPM ratio (pull-down/input))
GATGATTGTTCTCCCAGCTGATGAATTGCACAAGTCGAGTAAACAAATTTTCCTAATCTTTCTGTTCAAGCGCCATCTAC | 0.625
GATGATTGTTCTCCCAGCTGATGAATTGAATTTCTCGAGTAAACAAATTTTCCTAATCTTTCTGTTCAAGCGCCATCTAC | 0.7
GATGATTGTTCTCCCAGCTGATGAATTGAAGCATTCGAGTAAACAAATTTTCCTAATCTTTCTGTTCAAGCGCCATCTAC | 4.38
GATGATTGTTCTCCCAGCTGATGAATTGCATAAGTCGAGTAAACAAATTTTCCTAATCTTTCTGTTCAAGCGCCATCTAC | 0.625
GATGATTGTTCTCCCAGCTGATGAATTGTTACAATCGAGTAAACAAATTTTCCTAATCTTTCTGTTCAAGCGCCATCTAC | 1.61
GATGATTGTTCTCCCAGCTGATGAATTTTCGCAATCGAGTAAACAAATTTTCCTAATCTTTCTGTTCAAGCGCCATCTAC | 3.04
GATGATTGTTCTCCCAGCTGATGAATTCAAGACTTCGAGTAAACAAATTTTCCTAATCTTTCTGTTCAAGCGCCATCTAC | 0.32
GATGATTGTTCTCCCAGCTGATGAATTACCAGTTTCGAGTAAACAAATTTTCCTAATCTTTCTGTTCAAGCGCCATCTAC | 0.37
GATGATTGTTCTCCCAGCTGATGAATTAACTACTTCGAGTAAACAAATTTTCCTAATCTTTCTGTTCAAGCGCCATCTAC | 0.333
GATGATTGTTCTCCCAGCTGATGAATTAAATTGGTCGAGTAAACAAATTTTCCTAATCTTTCTGTTCAAGCGCCATCTAC | 0.968
GATGATTGTTCTCCCAGCTGATGAATTGCTACAGTCGAGTAAACAAATTTTCCTAATCTTTCTGTTCAAGCGCCATCTAC | 0.584
GATGATTGTTCTCCCAGCTGATGAATTACGGACATCGAGTAAACAAATTTTCCTAATCTTTCTGTTCAAGCGCCATCTAC | 0.47
GATGATTGTTCTCCCAGCTGATGAATTTCAAAATTCGAGTAAACAAATTTTCCTAATCTTTCTGTTCAAGCGCCATCTAC | 0.184
GATGATTGTTCTCCCAGCTGATGAATTCCGTTGATCGAGTAAACAAATTTTCCTAATCTTTCTGTTCAAGCGCCATCTAC | 1.38
GATGATTGTTCTCCCAGCTGATGAATTTGGGACCTCGAGTAAACAAATTTTCCTAATCTTTCTGTTCAAGCGCCATCTAC | 0.378
GATGATTGTTCTCCCAGCTGATGAATTCCGAGTTTCGAGTAAACAAATTTTCCTAATCTTTCTGTTCAAGCGCCATCTAC | 1.13
GATGATTGTTCTCCCAGCTGATGAATTCAGACCTTCGAGTAAACAAATTTTCCTAATCTTTCTGTTCAAGCGCCATCTAC | 0.26
GATGATTGTTCTCCCAGCTGATGAATTACAATCCTCGAGTAAACAAATTTTCCTAATCTTTCTGTTCAAGCGCCATCTAC | 0.553
GATGATTGTTCTCCCAGCTGATGAATTTGAAAACTCGAGTAAACAAATTTTCCTAATCTTTCTGTTCAAGCGCCATCTAC | 0.25
GATGATTGTTCTCCCAGCTGATGAATTGTGTAAATCGAGTAAACAAATTTTCCTAATCTTTCTGTTCAAGCGCCATCTAC | 0.96
GATGATTGTTCTCCCAGCTGATGAATTCGAAGGCTCGAGTAAACAAATTTTCCTAATCTTTCTGTTCAAGCGCCATCTAC | 0.312

Sequence | binding signal (RPM ratio (pull-down/input))
GATGATTGTTCTCCCAGCTGATGAATTTACAGGTTCGAGTAAACAAATTTTCCTAATCTTTCTGTTCAAGCGCCATCTAC | 0.504
GATGATTGTTCTCCCAGCTGATGAATTGGCACTCTCGAGTAAACAAATTTTCCTAATCTTTCTGTTCAAGCGCCATCTAC | 0.498
GATGATTGTTCTCCCAGCTGATGAATTAGGTCGCTCGAGTAAACAAATTTTCCTAATCTTTCTGTTCAAGCGCCATCTAC | 0.347
GATGATTGTTCTCCCAGCTGATGAATTTAGTAATTCGAGTAAACAAATTTTCCTAATCTTTCTGTTCAAGCGCCATCTAC | 1.36
GATGATTGTTCTCCCAGCTGATGAATTCGATGTTTCGAGTAAACAAATTTTCCTAATCTTTCTGTTCAAGCGCCATCTAC | 3.43
GATGATTGTTCTCCCAGCTGATGAATTTCAGCTTTCGAGTAAACAAATTTTCCTAATCTTTCTGTTCAAGCGCCATCTAC | 0.952
GATGATTGTTCTCCCAGCTGATGAATTGGCGAACTCGAGTAAACAAATTTTCCTAATCTTTCTGTTCAAGCGCCATCTAC | 0.265
GATGATTGTTCTCCCAGCTGATGAATTAATGAGTTCGAGTAAACAAATTTTCCTAATCTTTCTGTTCAAGCGCCATCTAC | 0.903
GATGATTGTTCTCCCAGCTGATGAATTCCTCCGCTCGAGTAAACAAATTTTCCTAATCTTTCTGTTCAAGCGCCATCTAC | 0.198
GATGATTGTTCTCCCAGCTGATGAATTTGAGTGGTCGAGTAAACAAATTTTCCTAATCTTTCTGTTCAAGCGCCATCTAC | 1.09
GATGATTGTTCTCCCAGCTGATGAATTTTGCCATTCGAGTAAACAAATTTTCCTAATCTTTCTGTTCAAGCGCCATCTAC | 5.66
GATGATTGTTCTCCCAGCTGATGAATTCCCGGTTTCGAGTAAACAAATTTTCCTAATCTTTCTGTTCAAGCGCCATCTAC | 0.323
GATGATTGTTCTCCCAGCTGATGAATTGAGGAGTTCGAGTAAACAAATTTTCCTAATCTTTCTGTTCAAGCGCCATCTAC | 0.338
GATGATTGTTCTCCCAGCTGATGAATTGCACTTATCGAGTAAACAAATTTTCCTAATCTTTCTGTTCAAGCGCCATCTAC | 1.9
GATGATTGTTCTCCCAGCTGATGAATTACCATAATCGAGTAAACAAATTTTCCTAATCTTTCTGTTCAAGCGCCATCTAC | 0.448
GATGATTGTTCTCCCAGCTGATGAATTAAATAATTCGAGTAAACAAATTTTCCTAATCTTTCTGTTCAAGCGCCATCTAC | 0.45
GATGATTGTTCTCCCAGCTGATGAATTGGGACGGTCGAGTAAACAAATTTTCCTAATCTTTCTGTTCAAGCGCCATCTAC | 0.253
GATGATTGTTCTCCCAGCTGATGAATTCTCAGATTCGAGTAAACAAATTTTCCTAATCTTTCTGTTCAAGCGCCATCTAC | 0.183
GATGATTGTTCTCCCAGCTGATGAATTCCCTTATTCGAGTAAACAAATTTTCCTAATCTTTCTGTTCAAGCGCCATCTAC | 0.343
GATGATTGTTCTCCCAGCTGATGAATTCTAGGCTTCGAGTAAACAAATTTTCCTAATCTTTCTGTTCAAGCGCCATCTAC | 0.304
GATGATTGTTCTCCCAGCTGATGAATTCGCCCCGTCGAGTAAACAAATTTTCCTAATCTTTCTGTTCAAGCGCCATCTAC | 0.285

Sequence | binding signal (RPM ratio (pull-down/input))
GATGATTGTTCTCCCAGCTGATGAATTGGATTCGTCGAGTAAACAAATTTTCCTAATCTTTCTGTTCAAGCGCCATCTAC | 0.459
GATGATTGTTCTCCCAGCTGATGAATTGCAAGACTCGAGTAAACAAATTTTCCTAATCTTTCTGTTCAAGCGCCATCTAC | 0.524
GATGATTGTTCTCCCAGCTGATGAATTTTAGGCGTCGAGTAAACAAATTTTCCTAATCTTTCTGTTCAAGCGCCATCTAC | 0.498
GATGATTGTTCTCCCAGCTGATGAATTATACGCGTCGAGTAAACAAATTTTCCTAATCTTTCTGTTCAAGCGCCATCTAC | 0.691
GATGATTGTTCTCCCAGCTGATGAATTGTAATTATCGAGTAAACAAATTTTCCTAATCTTTCTGTTCAAGCGCCATCTAC | 2.16
GATGATTGTTCTCCCAGCTGATGAATTAAGTATATCGAGTAAACAAATTTTCCTAATCTTTCTGTTCAAGCGCCATCTAC | 2.29
GATGATTGTTCTCCCAGCTGATGAATTAGTCGTCTCGAGTAAACAAATTTTCCTAATCTTTCTGTTCAAGCGCCATCTAC | 1.45
GATGATTGTTCTCCCAGCTGATGAATTCGATCCTTCGAGTAAACAAATTTTCCTAATCTTTCTGTTCAAGCGCCATCTAC | 0.306
GATGATTGTTCTCCCAGCTGATGAATTACCCACTTCGAGTAAACAAATTTTCCTAATCTTTCTGTTCAAGCGCCATCTAC | 0.338
GATGATTGTTCTCCCAGCTGATGAATTCTTGGCATCGAGTAAACAAATTTTCCTAATCTTTCTGTTCAAGCGCCATCTAC | 0.621
GATGATTGTTCTCCCAGCTGATGAATTGTACGAATCGAGTAAACAAATTTTCCTAATCTTTCTGTTCAAGCGCCATCTAC | 0.313
GATGATTGTTCTCCCAGCTGATGAATTACTCTTATCGAGTAAACAAATTTTCCTAATCTTTCTGTTCAAGCGCCATCTAC | 0.436
GATGATTGTTCTCCCAGCTGATGAATTCGCTCCGTCGAGTAAACAAATTTTCCTAATCTTTCTGTTCAAGCGCCATCTAC | 0.289
GATGATTGTTCTCCCAGCTGATGAATTGCTCCTGTCGAGTAAACAAATTTTCCTAATCTTTCTGTTCAAGCGCCATCTAC | 0.427
GATGATTGTTCTCCCAGCTGATGAATTGGTGGTATCGAGTAAACAAATTTTCCTAATCTTTCTGTTCAAGCGCCATCTAC | 1.23
GATGATTGTTCTCCCAGCTGATGAATTTTCGACCTCGAGTAAACAAATTTTCCTAATCTTTCTGTTCAAGCGCCATCTAC | 0.289
GATGATTGTTCTCCCAGCTGATGAATTCGCAATTTCGAGTAAACAAATTTTCCTAATCTTTCTGTTCAAGCGCCATCTAC | 1.92
GATGATTGTTCTCCCAGCTGATGAATTGCCAGAGTCGAGTAAACAAATTTTCCTAATCTTTCTGTTCAAGCGCCATCTAC | 0.316
GATGATTGTTCTCCCAGCTGATGAATTAGAGTCGTCGAGTAAACAAATTTTCCTAATCTTTCTGTTCAAGCGCCATCTAC | 0.544
GATGATTGTTCTCCCAGCTGATGAATTTGCTGAGTCGAGTAAACAAATTTTCCTAATCTTTCTGTTCAAGCGCCATCTAC | 0.811
GATGATTGTTCTCCCAGCTGATGAATTACGTGGATCGAGTAAACAAATTTTCCTAATCTTTCTGTTCAAGCGCCATCTAC | 0.457
